Consider 44 sequences from the supplement of paper PMC11417369.

The other results are listed elsewhere or left out.

The test system of this assay is PfHDP1 homeodomain (GST-tagged). Description: gcPBM binding intensity (ln(normalized median fluorescence intensity)); higher = stronger DNA binding. In a few lines: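 After 1 h on an Agilent 4 × 180k array of primer-extended double-stranded 36-bp intergenic genomic probes and negative controls, bound GST-tagged P. falciparum DNA-binding domains were detected with Alexa488 anti-GST antibody and scanned at 488 nm. The domains had been expressed in E. coli, and binding took place in 1× PBS with 1% milk, 0.2 mg/ml BSA, 0.5% salmon testes DNA and 0.03% Triton X-100. Binding intensity is the highest Masliner-normalised natural-log median intensity across replicate spots of either probe orientation.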
As for “AAATAGACATAAAAAGGTACACAAATTGTGTATTAA [XGTACX_site527]”, the “gcPBM binding intensity (ln)” value was found to be 7.23. The figure for “TTTTTTTATATTATACGCACTAATATATATATATAT [XGTACX_negctrl_site40]” is 8.78; for “GACATATATAGCAATCGTACATATATTATAAAAGGT [XGTACX_site6891]” it is 7.57.

As for “TTTAATTTTCCCTTCACACATAATATATATCTGTAT [CACACA_site5370]”, the “gcPBM binding intensity (ln)” value was 6.95.

Regarding “CGTTTGGTACACGTAGTGTTTTCGTTTGAATGTACC [GTGCAC_negctrl_site201]”, the “gcPBM binding intensity (ln)” value stood at 6.39. The figure for “AAAAGGAACAGACACACACACATATATAAATATGTA [CACACA_site7656]” is 6.72.

“TTTAAATATTTTATAGCATGCTACCAATATGTATAT [TGCATGCA_site291]”: the “gcPBM binding intensity (ln)” value is 6.89.

Regarding “AAGAACAAACAAAATAGTACAATATATATATATATA [XGTACX_site4258]”, the “gcPBM binding intensity (ln)” value turned out to be 9.12. For “CATATATAGATATATACACACATATAGATTTTCTTT [CACACA_site6797]”, the “gcPBM binding intensity (ln)” value was determined as 6.52.

For “TATTCATAACAATGATGTACATATATTTTTTTTTTC [XGTACX_site5619]”, the “gcPBM binding intensity (ln)” value amounted to 6.47. In the case of “AACTATAATTAAAGGATGCACTTGAAGGCATTTCAA [GTGCAC_site9689]”, the “gcPBM binding intensity (ln)” value turned out to be 6.72. For “TTACTTGTTTATTTTTTTTTTTTTTTTTTTTTTGTT [TGCATGCA_negctrl_site103]” the value was 5.62; for “TAATGGAGAAAATAATGTACTTAGATATTTGTTCTA [XGTACX_site6312]”, 6.01. “AAAAATTAGAAACACACACACATATATATATATATT [CACACA_site1042]”: the “gcPBM binding intensity (ln)” value stood at 6.74. For “TCAAATGTATATAATTGTACTTATCCTTTTCATTTT [XGTACX_site4879]” the value was 6.31; for “TTTTAAGTTTTTGAATGTACGTAATTTGTAAATTCT [XGTACX_site2448]”, 5.98. Take “AAAAAAAAAAAAAAAAAAAAAAAAAAAGATTATGAG [CACACA_negctrl_site1088]”: the “gcPBM binding intensity (ln)” value was found to be 7.13. Consider “TATAAAATACTGTATCGATGGGGGAGGGCGCAGGGG [TGCATGCA_negctrl_site250]”, for which the “gcPBM binding intensity (ln)” value is 7.4.

As for “TACAATATTTTGAGACGTACATATATACATTTACAT [XGTACX_site5880]”, the “gcPBM binding intensity (ln)” value is 6.51.

As for “AAATTAAAATAAAAATGTACATATAAAGACACAACT [XGTACX_site3132]”, the “gcPBM binding intensity (ln)” value is 7.3. On to “CTTACCAAAAGACACACACACACAAGATATATAAAT [CACACA_site6964]”, for which the “gcPBM binding intensity (ln)” value is 6.87. Turning to “TATATATATATACCAACACACATACAGATATATATA [CACACA_site5060]”, the “gcPBM binding intensity (ln)” value turned out to be 9.03. In the case of “TTTATATACAAAAATGCACACGAAAAGTAATATATA [CACACA_site9387]”, the “gcPBM binding intensity (ln)” value came out at 9.27. As for “TGTAAGTCGTTATAAGCACACACATAAATAAAAATA [CACACA_site8448]”, the “gcPBM binding intensity (ln)” value was determined as 6.96.

In the case of “TGAACTTACTTGGACATACACACATATATATATATA [CACACA_site2977]”, the “gcPBM binding intensity (ln)” value was 9.3.

Take “AAATTTTAAATAGTATGTACGTATGAAATATATATG [XGTACX_site7511]”: the “gcPBM binding intensity (ln)” value was found to be 7.24. Take “ACCCATTTAACAAAATGTACATTATTATAATTACTT [XGTACX_site7105]”: the “gcPBM binding intensity (ln)” value was found to be 6.79.

As to “ATTTAAATACAAAATTGTACTTTTCTATATTTAACA [XGTACX_site6146]”, the “gcPBM binding intensity (ln)” value stood at 6.39. Turning to “TTTGGAAAAAAATTATTTAAACGATATGAATTGATG [XGTACX_negctrl_site506]”, the “gcPBM binding intensity (ln)” value worked out at 6.3.

As for “AAAATTTTACAGAAGGTGCGTATATTTTCCTGCTTA [GTGCAC_site9643]”, the “gcPBM binding intensity (ln)” value was 6.5. With ATGTAGATAAAACGTGTGCACATGTTTTTTGTTATT, the “gcPBM binding intensity (ln)” value came out at 10.4. As for “CACAGTGATATAAAAACACACATGAATTATAATTTC [CACACA_site1667]”, the “gcPBM binding intensity (ln)” value worked out at 6.16. On to “TTTTGTTATGGTTTGATGCACTTATATATAAATATT [GTGCAC_site9705]”, for which the “gcPBM binding intensity (ln)” value amounted to 7.96. Consider “ATATATATATATATATGTACTTATTACCAATGTTAG [XGTACX_site1896]”, for which the “gcPBM binding intensity (ln)” value was determined as 9.47. For “AAGCCCATTATTAAATGTACAAAATTTTATAAACTA [XGTACX_site7800]”, the “gcPBM binding intensity (ln)” value was 6.62. For “TATAGGTATTTATATACACACATATTCTTTTTACAC [CACACA_site6686]”, the “gcPBM binding intensity (ln)” value came to 6.72. Take “GTATATATGTATATATGTACATATATATAATATATT [XGTACX_site56]”: the “gcPBM binding intensity (ln)” value was found to be 6.57. In the case of “TAAAACATATATACAAGTACACAAAGGATATATATA [XGTACX_site3710]”, the “gcPBM binding intensity (ln)” value was determined as 6.63. For “CAGTGCCAAATTAGCACACACATATATACATGAATT [CACACA_site2814]” the value was 7.16; for “AAAAAATACCTCTATAGTACATATATATAATATTTA [XGTACX_site7222]”, 6.18. On to “AAAAAAAATTTATTTGCATGCAAAAAAAAAAAAAAA [TGCATGCA_site67]”, for which the “gcPBM binding intensity (ln)” value was determined as 6.79. On to “TAATTATGTATGAACTGTACAGGTTATTTTATTTTA [XGTACX_site5204]”, for which the “gcPBM binding intensity (ln)” value is 6.31. Take “TAAAATTTAAATTATACACACTTAAGTAACATCATC [CACACA_site4450]”: the “gcPBM binding intensity (ln)” value was found to be 6.9. On to “CTACTTATAAATAGAACACACATAAGTGTATTTGTA [CACACA_site3759]”, for which the “gcPBM binding intensity (ln)” value came out at 6.33.
